Reference: the supplement of paper PMC11417369
This is one part of the list.

system: PF3D7_0420300 AP2 domain 1 (GST-tagged); assay: gcPBM binding intensity (ln(normalized median fluorescence intensity)); higher = stronger DNA binding
In short: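 Binding of GST-tagged P. falciparum DNA-binding domains, expressed in E. coli and used at about 25 μg on average, was carried out for 1 h in 1× PBS containing 1% milk, 0.2 mg/ml BSA, 0.5% salmon testes DNA and 0.03% Triton X-100. The target was an Agilent 4 × 180k array of primer-extended double-stranded 36-bp intergenic genomic probes plus negative controls, read with Alexa488 anti-GST antibody at 488 nm. Binding intensity is the highest Masliner-normalised natural-log median intensity across replicate spots of either probe orientation.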

Sequence | gcPBM binding intensity (ln)
TATAAAAATAAGTATACACACAAAATGCGTAACTTT [CACACA_site1295] | 9.3
TACATTAAACGAATAGTGCAAGAAGTATTCGTATAA [GTGCAC_site9939] | 9.32
ATAAATACATTAAAATGTACATAAAAATATTACTGG [XGTACX_site1484] | 9.2
TTACAAAACCGATGTTGTACATTCAATAGATAATGT [XGTACX_site3806] | 9.19
ATATACCATATGCATGGTACACATTTACAACAAAAA [XGTACX_site3142] | 9.21
AATGTATAAAAGTTTTGTACATATTCTCACACATAT [XGTACX_site965] | 9.38
TAGTTGTGAGTTACATGTACATGTATTTATTTTTTA [XGTACX_site7088] | 9.51
ATAACGTAAACAATGTGGACACATACATAAATATAT [XGTACX_site707] | 9.47
GATAACAATATGTGTACACATTTATATCTCCACATA [CACACA_site5442] | 9.45
TTTATTAAATAAAGCACACACAACAACTTTTCACAA [CACACA_site4132] | 9.68
TACATAAACATTTATACACACATTATATATACATAT [CACACA_site8028] | 9.64
TGTGCTCGCTATTACACACTCATTGGGATAAAATTG [CACACA_site2029] | 9.26
TGGCTTATTCAGAAATGTACACATATAAATATATAT [XGTACX_site3765] | 9.19
AAAATAATATATGTATGTACACAATTATTTATAAGT [XGTACX_site7267] | 9.35
TTTCTTTTAATTATCCGTACACAAACAATAAAATAA [XGTACX_site7841] | 9.04
TGAATAAATAAGATACGTACACACATATACAAAATA [XGTACX_site7758] | 9.8
AAAAAAAAAAAAAACACACACACACGCAAATACATA [CACACA_site6474] | 10.2
TCCTTAAATATAAAGGTGCTATGCAGACCTTATGTT [GTGCAC_site9472] | 8.91
ATATAAGTACGGCATGCATGCACATTTTTTTATTCC [TGCATGCA_site101] | 9.41

Sequence | gcPBM binding intensity (ln)
TTATAAATTCAATGTACTACACAAAATGAATTTAAT [XGTACX_site6683] | 9.09
TACAGACATAGACACACACACACGCATAAAAAAAAA [CACACA_site6820] | 10.1
TTCCTATAAAAAAACACACACATATAAATATAAATA [CACACA_site7154] | 9.86
AAATAACTTTTAAATACACACGTAAAATATATTGTG [CACACA_site9085] | 9.27
ACCGTGGGAGGACACACACACACACGCACATATATA [CACACA_site6289] | 10.3
TACATTATAAATATTACACACTTTATAAAATAATAA [CACACA_site6096] | 9.23
TTAACCACTAAAAGTACACACATATATACATATATA [CACACA_site3912] | 9.45
ATAATATTTTTATGTACACACCTTAATCCTTAAAAG [CACACA_site5881] | 9.3
TCCTTTTTTTTTTATGCACACACAATTATACATTCC [CACACA_site9287] | 10
TCTATTAATTAATATACACACATTATATATATATAT [CACACA_site8815] | 9.48
AATATATATATATATATATTTTTGTTAGAATATGGA [CACACA_negctrl_site212] | 8.99
AAATAAATAAATAGAGTGCATATATATATATATTTT | 9.37
ATATACAAAGGATTAACACACATATTATTATAGATA [CACACA_site6966] | 9.65
CTTTTTATTTATCATACACACACAGAAAAAAAAAAA [CACACA_site7935] | 9.52
AATTTTTAGAAGAACACACACATATATATTATGACC [CACACA_site246] | 9.84
ATAGGAGAAAAAGAATGTACGTATGATGTTGAAAAT [XGTACX_site7779] | 9.65
ATTATGCACAGACACACACACACACTACTAAAAAAT [CACACA_site7252] | 10.1
AAAAAAAATAAAAATATATATATATATATATAAATA [GTGCAC_negctrl_site676] | 9.13
ATATAGAATGTTTACACACGCAATAAATATATATAT [CACACA_site217] | 9.46

Sequence | gcPBM binding intensity (ln)
ATGGTATAAAAAAATACACACTTATTTATATTCTTA [CACACA_site6370] | 9.3
GCGTATCATTTTAAAACACACAGGATTTTATAAGTA [CACACA_site1225] | 9.21
TTAAAAAATCACAACACACACACACGCAAAAAAAAA [CACACA_site6793] | 10
TGTAGTCTGGAGAAGAGTACACAGTATCTGGTAGCT [XGTACX_site2036] | 8.97
AAAAATAACATATAAACACACATATAGATTTATATA [CACACA_site7738] | 9.63
AAATATTACATACACGCACACATTAAAATATTTAAA [CACACA_site5440] | 9.55
ATGTACCTTCAAACTACACACAAATGAAGGAACACA [CACACA_site3330] | 9.57
ATCTAATAAAAATACACACACATATGGTTTGTGAAT [CACACA_site6962] | 9.87
ATATATACATACATATGTACATATGTAGATATATTT [XGTACX_site1230] | 9.34
ATTTTTTTTGTTTATTCTTATGTGGTTATTAAATTA [CACACA_negctrl_site1000] | 9.55
TACGTTTTAAAACACACACACAAAAAAAAAAAAAAA [CACACA_site3876] | 9.43
TATTTGTTTAAATTCACACACGTATATATATTTATA [CACACA_site5651] | 9.55
ATTATGAAATATCGTGCACACACGAATAATATAAGA [CACACA_site1294] | 9.42
AAAAGAGAAATGGGCACACACACACCCATTATATAT [CACACA_site1530] | 9.88
ACCATATAAAGTTAGGTGCATTTGTATGTATCTTAC | 9.23
TCTTGTTCGCCCTATTGTACAAACATATATTGTGAT [XGTACX_site2884] | 9.49
TTATTTTGATCTGGTTGTACATATAATATATAGTGG [XGTACX_site357] | 9.34
ATTAATTTGATTTTAATAAGAATATTTGTGGGGAAT [GTGCAC_negctrl_site198] | 9.04
TTTTCAATATATATATGCTGAATTTATAATTTGTAT [CACACA_negctrl_site1774] | 9.09
